# Results: ChEMBL document CHEMBL4888484, “Replenishing the malaria drug discovery pipeline: Screening and hit evaluation of the MMV Hit Generation Library 1 (HGL1) against asexual blood stage Plasmodium falciparum ,using a nano luciferase reporter read-out” (2022)
# The whole screen tested about 150,000 compounds, of which about 540 (0.36%) showed an effect of 50% or more. This is one part of the list.
# Tested on: Plasmodium falciparum
# Test: Primary screen in NF54 nanoGlo assay, in single point, at 2uM, 72h; a lower Z score goes with more inhibition
# Type: functional, Erythrocyte
# Settings: timepoint 72 hour
Structure (SMILES),% Inhibition [%],Z score
C=CCNC(=S)NS(=O)(=O)c1ccc(Cl)cc1,33,-4.42
FC(F)(F)c1cccc(-c2nc([C@@H]3CN(Cc4ccccc4)CCO3)no2)n1,-10,1.24
CN(CCc1ccccc1)C[C@@H]1OC[C@H](NC(=O)c2cccc(F)c2)[C@H]1O,34,-3.86
Cc1ccnc(N(C)C[C@H](C)C(=O)O)c1Cl,0,-0.03
Cc1ccc(Br)cc1NC(=O)N(C)CCc1cnccn1,-16,1.41
CC(C)[C@@H]1CN(C)CCN1Cc1cnc2ncccn12,-8,0.84
Cc1nc(C)c(C)c(N2CCC3(CC2)C[C@@H]3C(=O)N2CCCC2)n1,-10,1.33
Cc1nc[nH]c1CN1CCN(C(=O)c2ccccc2O)[C@H]2CS(=O)(=O)C[C@H]21,-8,1.51
COCC(=O)NC[C@H]1CCN(Cc2ccc(Cl)cc2)C[C@H]1N(C)C,4,-0.81
O=C(Cn1cnnn1)N1CCC[C@H](c2[nH]ncc2-c2ccccc2)C1,-12,1.57
CCn1c(-c2cc(NC(=O)[C@H](C)Oc3ccccc3)[nH]n2)cc2cc(OC)ccc21,26,-3.58
CS(=O)(=O)c1ccc(NC(=O)N2C[C@H]3CC=CC[C@H]3C2)cc1,-15,2.1
N#CC1(N2CCCC2)CCN(CC2CC2)CC1,9,-1.32
Cc1ccc(C(C)(C)CNC(=O)C2C[C@H]3C[C@@H](N)[C@H]3C2)nc1 (some centres undefined),2,-0.25
Cc1n[nH]c(C)c1CNC(=O)C[C@@H](c1cccc(O)c1)c1cccc(Cl)c1,-6,0.73
O=S(=O)(C1C[C@@H]2CC[C@H]1C2)N1CC2CCC(O)C2C1 (some centres undefined),-17,2.79
CC(C)NC(=O)C(C#N)C(=O)C1CC1c1ccc(F)cc1F (centres undefined),-2,0.34
Cc1ccc(-n2cc(S(=O)(=O)NCC3CC3)cn2)cc1S(=O)(=O)NCC1CC1,-5,0.61
O=C(CCCc1nnc2ccccn12)Nc1ccncc1,-14,1.8
Cc1ccc([C@@H](O)CNC(=O)c2cccn(C)c2=O)o1,-9,1
C[C@H]1CN(c2ncnc3c2cnn3C)c2ccccc21,-12,1.54

Structure (SMILES),% Inhibition [%],Z score
C[C@@H](CCNC(=O)c1cccc(-c2cc(C#N)ccc2O)c1)N1CCOCC1,-14,1.82
CCCNC(=O)c1nc(N2CCCC2)c2c(C)cc(C)nc2n1,-6,0.92
Cc1cncc(C(=O)Nc2cc(Br)c(=O)n(C)c2)c1,-15,1.77
O=C(NC(=O)C(F)(F)F)Nc1cc(C(F)(F)F)ccc1Cl,-14,1.61
COc1ccc(-c2c(C(=O)Nc3ccc(C)cc3Cl)nn3c(C)cc(=O)[nH]c23)cc1,-15,1.78
Cn1cc(CCC(=O)NCc2ccc3c(c2)nc(C2CC2)n3C)cn1,-4,0.76
CCOC(=O)C1(Cc2ccc(Cl)cc2)CCN([C@@H](C)Cc2cc(C)ccn2)CC1,-8,1.05
CCOc1cccc(Cc2noc([C@H]3CCCc4[nH]nnc43)n2)n1,2,-0.4
C#CCCN1CCN(C(=O)C2CC(=O)N(C)C2c2cccnc2)CC1 (centres undefined),8,-0.87
Cc1cnc(C)c(-c2cc(O)c3c(c2)CN(C2CCOCC2)CCO3)n1,-5,0.68
CCCN(CC(F)F)S(=O)(=O)N1CC(C)OCC1C (centres undefined),-6,0.75
CCOCC(=O)Nc1cc(-c2cc3cc(OC)ccc3n2CC)n[nH]1,-17,2.05
COCCN1C(=O)CC[C@]2(C(=O)N(C)C)CCCC[C@@H]12,-15,1.5
CC1CN(Cc2ccccn2)CCC1Nc1cccc(F)c1C#N (centres undefined),2,-0.24
CCc1nn(C)c(NC(=O)[C@H](OC)c2ccccc2)c1C,-6,1.04
Cc1oc(C2CC2)nc1C(=O)NC[C@@H]1CC(=O)N(C(C)(C)C)[C@H]1c1cnn(C)c1,-10,1.12
O=S(=O)(C1COC1)N1CC2(CCCOC2)C1,31,-3.47
COC(=O)N[C@@H](CC(C)C)C(=O)Nc1ccc(CO)c(CO)c1,-3,0.4
Cc1ccc(CN2CCC(N3C(=O)N4CCCC4(C)C3=O)C2=O)cc1 (centres undefined),-14,2.03
CC(C)(C)n1ncnc1-c1ccc(-n2cnnc2)nc1,-12,1.88
Clc1cccc2ccc(CN3CCO[C@H](c4cccnc4)C3)nc12,-24,2.58
